Counter-ions that a name gives are not always drawn. The list shows a part of the results. Rule as the data show it: active = -2 or less and inactive = the rest. Single values are uncertain, as repeats are few or missing.
test system: hPSC-derived cortical neurons (WA09); test: nuclei number (viability) z-score; higher = more surviving cells; details: 5 µM; treatment: days 7-14 after plating, readout day 21
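Also: nuclei counted from DAPI counterstain by automated high-content image analysis, four fields per well at ×20 in 384-well plates, with sequential b-score then z-score normalization.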

Row | Structure (SMILES) | nuclei number (z-score)
1 | c1cn2cc(-c3ccc4cn[nH]c4c3)nc(Nc3ccc(N4CCOCC4)cc3)c2n1 | inactive: -0.139
2 | C[C@H](CCC(=O)NCCS(=O)(=O)O)[C@H]1CC[C@H]2[C@@H]3[C@@H](O)C[C@@H]4C[C@H](O)CC[C@]4(C)[C@H]3CC[C@]12C [Sodium Tauroursodeoxycholate (TUDC)] | inactive: -0.417
3 | O=C1CCC(N2C(=O)c3ccccc3C2=O)C(=O)N1 (configuration not stated) [Thalidomide] | inactive: 1.73
4 | NCC[C@H](O)C(=O)N[C@@H]1C[C@H](N)[C@@H](O[C@H]2O[C@H](CN)[C@@H](O)[C@H](O)[C@H]2O)[C@H](O)[C@H]1O[C@H]1O[C@H](CO)[C@@H](O)[C@H](N)[C@H]1O [Amikacin disulfate] | inactive: -1.15
5 | NCC[C@H](O)C(=O)N[C@@H]1C[C@H](N)[C@@H](O[C@H]2O[C@H](CN)[C@@H](O)[C@H](O)[C@H]2O)[C@H](O)[C@H]1O[C@H]1O[C@H](CO)[C@@H](O)[C@H](N)[C@H]1O [Amikacin hydrate] | inactive: 0.643
6 | O=C1c2cccc3c2[C@H](CCC3)CN1[C@@H]1CN2CCC1CC2 [Palonosetron HCl] | inactive: 1.32
7 | COc1cc(/C=C/C(=O)CC(=O)/C=C/c2ccc(O)c(OC)c2)ccc1O [Curcumin] | inactive: 0.85
8 | Cc1cc2c(F)c(Oc3ncnn4cc(OC[C@@H](C)O)c(C)c34)ccc2[nH]1 | inactive: 0.363
9 | O=C(O)CSCC(=O)NC1CCSC1=O (configuration not stated) [Erdosteine] | inactive: 0.0779
10 | CC(C)CN(C[C@@H](O)[C@H](Cc1ccccc1)NC(=O)O[C@H]1CO[C@H]2OCC[C@H]21)S(=O)(=O)c1ccc(N)cc1 [Darunavir Ethanolate] | inactive: 3.96
11 | Clc1ccc(Nc2nnc(Cc3ccncc3)c3ccccc23)cc1 [Vatalanib (PTK787) 2HCl] | inactive: -0.613
12 | Cn1cc(-c2ccc3nnc(Sc4ccc5ncccc5c4)n3n2)cn1 | inactive: -0.395
13 | O=C1NC(=O)/C(=C/c2cccc(C(F)(F)F)c2)S1 | inactive: 0.0648
14 | Cc1cc(O)c2c(c1)C(=O)c1cc(O)cc(O)c1C2=O [Emodin] | inactive: 0.0605
15 | O=c1[nH]cnc2[nH]ncc12 [Allopurinol Sodium] | inactive: 0.724
16 | CN1CCN(C2CCN(C(=O)Nc3cc(Oc4ccc(NC(=O)C5(C(=O)Nc6ccc(F)cc6)CC5)c(F)c4)ccn3)CC2)CC1 [Golvatinib (E7050)] | active: -5.36
17 | C[N+](C)(C)CCO.[Cl-] [Choline Chloride] | inactive: -0.285

Source: the supplement of paper PMC11348887
